No constants are given. Whether binding was seen depends on the method and setting. In cells and extracts the contact can be indirect. Some results given as binding are weak or reduced against the parent protein; the word gives no strength. For some of these results: Sequences can lack the tags named with a protein.
Key:
GST–TSG101 = GST–TSG101 (UniProt Q99816); assay: pull-down; 293T cells co-transfected with GST–TSG101, Myc–VPS28, HA–UMAD1 (wild type or mutant) and one HA-tagged VPS37 subunit; lysate on glutathione–Sepharose beads 3 h at 4°C (50 mM Tris-HCl pH 7.4, 150 mM NaCl, 5 mM EDTA, 5% glycerol, Triton X-100); anti-HA blot; unfused GST as control
HA–VPS37A = HA–VPS37A (UniProt Q8NEZ2); assay: as above
HA–VPS37B = HA–VPS37B (UniProt Q9H9H4); assay: as above
HA–VPS37C = HA–VPS37C (UniProt A5D8V6); assay: as above
HA–VPS37D = target: T1, HA–VPS37D (UniProt Q86XT2); assay: as above
T1 sequence: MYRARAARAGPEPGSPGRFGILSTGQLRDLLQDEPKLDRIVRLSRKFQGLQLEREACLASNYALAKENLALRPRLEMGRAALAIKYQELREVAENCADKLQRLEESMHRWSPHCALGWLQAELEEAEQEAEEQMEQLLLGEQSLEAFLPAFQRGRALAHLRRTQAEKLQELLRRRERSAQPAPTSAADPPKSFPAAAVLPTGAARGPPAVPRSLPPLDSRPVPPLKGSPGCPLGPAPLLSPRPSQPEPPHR

Sequences of proteins named here, by UniProt entry; tags and fusion partners are left off.
UniProt Q8NEZ2: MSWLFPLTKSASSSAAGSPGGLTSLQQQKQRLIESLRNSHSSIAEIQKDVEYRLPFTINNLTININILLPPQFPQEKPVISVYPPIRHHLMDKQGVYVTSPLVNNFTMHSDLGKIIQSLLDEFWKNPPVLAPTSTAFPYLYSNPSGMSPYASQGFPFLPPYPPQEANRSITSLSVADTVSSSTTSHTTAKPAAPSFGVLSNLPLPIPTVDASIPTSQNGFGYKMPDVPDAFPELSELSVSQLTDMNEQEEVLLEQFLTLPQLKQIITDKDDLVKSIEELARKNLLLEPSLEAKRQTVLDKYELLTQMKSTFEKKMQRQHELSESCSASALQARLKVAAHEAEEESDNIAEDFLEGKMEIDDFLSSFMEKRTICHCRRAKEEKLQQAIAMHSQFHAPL
UniProt A5D8V6: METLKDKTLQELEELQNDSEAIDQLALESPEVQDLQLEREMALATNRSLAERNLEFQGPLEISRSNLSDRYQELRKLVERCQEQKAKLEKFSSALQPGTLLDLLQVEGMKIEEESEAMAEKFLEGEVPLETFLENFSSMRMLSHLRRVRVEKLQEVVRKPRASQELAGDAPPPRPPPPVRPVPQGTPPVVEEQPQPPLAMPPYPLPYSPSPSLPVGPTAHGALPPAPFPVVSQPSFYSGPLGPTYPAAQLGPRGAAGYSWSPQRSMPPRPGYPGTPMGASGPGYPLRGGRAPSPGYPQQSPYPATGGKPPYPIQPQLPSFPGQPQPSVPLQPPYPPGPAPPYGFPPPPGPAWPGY
UniProt C9J7I0: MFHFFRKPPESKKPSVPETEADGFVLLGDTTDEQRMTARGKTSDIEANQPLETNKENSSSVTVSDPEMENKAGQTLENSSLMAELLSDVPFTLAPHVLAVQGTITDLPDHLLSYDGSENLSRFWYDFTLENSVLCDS

YFP–UMAD1 (human) = YFP–UMAD1 (human) (UniProt C9J7I0); assay: co-IP; GFP-trap magnetic agarose on lysates of HeLa cells stably expressing a YFP-tagged bait (YFP–TSG101 in HeLa^WT or HeLa^ΔUMAD1; YFP–UMAD1 in HeLa^ΔUMAD1), >12 h at 4°C; western blot for endogenous proteins; unfused YFP as control
YFP–VPS37A = YFP–VPS37A (UniProt Q8NEZ2); assay: as above
YFP–VPS37C = YFP–VPS37C (UniProt A5D8V6); assay: as above
YFP–TSG101 = YFP–TSG101 (UniProt Q99816); assay: as above
YFP–VPS37B = YFP–VPS37B (UniProt Q9H9H4); assay: as above

## HA–UMAD1 (from UniProt C9J7I0 1-137)
GST–TSG101
  binding: binds
HA–VPS37A
  binding: no binding
HA–VPS37B
  binding: binds
HA–VPS37C
  binding: binds
HA–VPS37D
  binding: binds weakly

## endogenous TSG101 (from UniProt Q99816 1-390)
YFP–UMAD1 (human)
  binding: binds
YFP–VPS37A
  binding: binds
YFP–VPS37C
  binding: binds

## endogenous UMAD1 (from UniProt C9J7I0 1-137)
YFP–TSG101
  binding: binds
YFP–VPS37B
  binding: binds
YFP–VPS37C
  binding: binds

## endogenous VPS37A (from UniProt Q8NEZ2 1-397)
YFP–UMAD1 (human)
  binding: no binding

## endogenous VPS37C (from UniProt A5D8V6 1-355)
YFP–UMAD1 (human)
  binding: binds
